Measurements published in the supplement of paper PMC10369915.
Some of the results follow. Cut-off read from the data, not from the text of the source: active = 3.2 or more and inactive = the rest. The signal is at background level for most entries.

B1: ANO1_Y981 (peptide)
chain: APSHAYHGGVL
B2: ANO1_Y981_G983R (peptide)
chain: APSHAYHRGVL
B3: ANXA1_Y335 (peptide)
chain: ETKGDYEKILV
B4: ANXA3_Y15_S19N (peptide)
chain: GTVRDYPDFNP
B5: ANXA3_Y295_F291S (peptide)
chain: ESKKHYGYSLY
B6: APBB1IP_Y340_R335W (peptide)
chain: WASGIYYVPKG
B7: APC_Y96_R99W (peptide)
chain: MSLRSYGSWEG
B8: APOA1_Y53_G50R (peptide)
chain: DSRRDYVSQFE
B9: APOA4_Y310_V307L (peptide)
chain: RRLEPYGENFN
B10: APOB_Y276_YF (peptide)
chain: SFKNKYGMVAQ
B11: APOE_Y180 (peptide)
chain: KRLAVYQAGAR
B12: APTX_Y209 (peptide)
chain: VIKDKYPKARY
B13: APTX_Y209_A212V_YF (peptide)
chain: VIKDKYPKVRF
B14: APTX_Y214_A212V_YF (peptide)
chain: FPKVRYHWLVL
B15: APTX_Y214_H215R (peptide)
chain: YPKARYRWLVL
B16: APTX_Y214_K211Q (peptide)
chain: YPQARYHWLVL
B17: APTX_Y214_R213H_YF (peptide)
chain: FPKAHYHWLVL
B18: AQP6_Y231 (peptide)
chain: LASLIYNFVLF
B19: AR_Y395_P392R (peptide)
chain: ENRLDYGSAWA

What follows are binders tested against SHP2 C-SH2 domain E139D (assay: enrichment score (SH2-bound / input frequency) (ratio); bacterial display of known human phosphotyrosine sites (pTyr-Var adds point mutants) read by sequencing; higher = stronger binding; tyrosines were phosphorylated by kinases first). Conditions: peptide library: pTyr-Var.
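Note: displayed peptides selected on beads carrying the immobilized SH2 domain, with library peptides lacking any tyrosine serving as negative controls.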

Enrichment score, active:
B17 4.21, B18 3.26

Enrichment score, inactive:
B1 1.13, B2 1.2, B3 0.703, B4 0.674, B5 0.621, B6 1.4, B7 0.194, B8 0.794, B9 0.925, B10 0.768, B11 1.14, B12 1.3, B13 1.46, B14 1.97, B15 1.12, B16 2, B19 0.605

The binders below were run against SHP2 C-SH2 domain wild-type in the same assay as above. Conditions: peptide library: pTyr-Var.

Enrichment score, active:
B17 3.54

Enrichment score, inactive:
B1 0.844, B2 1.05, B3 1.08, B4 0.7, B5 0.504, B6 1.44, B8 0.612, B9 0.776, B10 0.59, B11 0.862, B12 1.52, B13 1.31, B14 2, B15 0.765, B16 1.92, B18 3.16, B19 0.481

The binders below were run against SHP2 N-SH2 domain L43F in the same assay as above. Conditions: peptide library: pTyr-Var.

Enrichment score, inactive:
B1 0.879, B2 1, B3 1.15, B4 0.672, B5 0.552, B6 1.21, B7 0.639, B8 0.669, B9 0.949, B10 0.722, B11 0.919, B12 1.34, B13 1.3, B14 1.66, B15 0.823, B16 1.99, B18 2.73, B19 0.63

Enrichment score, active:
B17 4.06

The binders below were run against SHP2 N-SH2 domain T42A in the same assay as above. Conditions: peptide library: pTyr-Var.

Enrichment score, inactive:
B1 0.877, B2 0.93, B3 0.913, B4 0.669, B5 0.578, B6 1.19, B7 1.34, B8 1.18, B9 0.64, B10 0.623, B11 0.812, B12 1.29, B13 0.989, B14 1.42, B15 0.695, B16 1.78, B18 2.76, B19 0.453

Enrichment score, active:
B17 3.46

The binders below were run against SHP2 N-SH2 domain T52S in the same assay as above. Conditions: peptide library: pTyr-Var.

Enrichment score, active:
B17 3.26

Enrichment score, inactive:
B1 0.784, B2 1.08, B3 1.11, B4 0.645, B5 0.491, B6 1.47, B7 0.411, B8 0.495, B9 0.756, B10 0.696, B11 0.8, B12 1.28, B13 1.28, B14 1.79, B15 0.853, B16 1.95, B18 2.35, B19 0.562

What follows are binders tested against SHP2 N-SH2 domain wild-type in the same assay as above. Conditions: peptide library: pTyr-Var.

Enrichment score, inactive:
B1 1.17, B2 1.1, B3 1.4, B4 0.682, B5 0.587, B6 1.33, B7 1, B8 0.577, B9 0.669, B10 0.738, B11 0.92, B12 1.42, B13 1.37, B14 2.11, B15 0.788, B16 1.88, B18 2.88, B19 0.597

Enrichment score, active:
B17 3.96
